# From PubChem BioAssay AID1030 (National Center for Advancing Translational Sciences (NCATS), 2008)
# Among all 220,000 compounds or so, about 16,000 (7.3%) were called active. Inconclusive results, whose numbers are uncertain, are shown with a selection of clear calls. The call rests on the fitted dose curve; in most records, active means well fitted inhibition curve with a large enough effect (not every such curve was filed as active); inconclusive means small, poorly fitted or top-dose-only effect, or another doubt; inactive means no such curve, though single readings can be large or run the other way. No potency is given beside an inconclusive call; the fits are too rough.
# Molecular target: Aldehyde dehydrogenase 1A1 (Homo sapiens) (UniProt P00352)
# Chain of UniProt P00352 (P00352 whole entry, looked up): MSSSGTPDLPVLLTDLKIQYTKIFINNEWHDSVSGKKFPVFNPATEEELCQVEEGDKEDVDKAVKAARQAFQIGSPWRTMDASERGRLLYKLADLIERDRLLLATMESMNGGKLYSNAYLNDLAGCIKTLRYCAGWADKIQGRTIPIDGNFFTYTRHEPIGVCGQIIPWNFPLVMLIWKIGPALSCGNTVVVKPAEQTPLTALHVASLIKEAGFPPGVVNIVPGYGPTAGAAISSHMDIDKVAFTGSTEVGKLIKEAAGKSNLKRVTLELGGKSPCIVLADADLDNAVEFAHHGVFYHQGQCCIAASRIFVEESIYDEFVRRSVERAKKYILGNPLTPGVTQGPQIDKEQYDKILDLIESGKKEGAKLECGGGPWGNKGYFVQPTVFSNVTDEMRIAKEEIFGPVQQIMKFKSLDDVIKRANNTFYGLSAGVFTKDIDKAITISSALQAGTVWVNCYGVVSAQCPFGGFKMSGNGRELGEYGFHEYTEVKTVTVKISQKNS
# Experiment: qHTS Assay for Inhibitors of Aldehyde Dehydrogenase 1 (ALDH1A1);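 on activity, negative = inhibition: plate controls were no enzyme wells and a reference inhibitor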
# Conditions: Purified ALDH1A1, NADH fluorescence, propionaldehyde substrate; series mostly up to 75.3 µM; activity, negative = inhibition: at the top concentration
# Potency means the concentration at half of the fitted maximal effect; tags describe the fitted curve by direction and shape.
Structure (SMILES),Potency,"activity, negative = inhibition"
COc1ccc(S(=O)(=O)N(C)C)cc1NCC(=O)Nc1ccc(Br)c(C)c1,"inconclusive [inhibitor, single point]",
COc1cc(C=Nc2ccccc2C(=O)Nc2ccccc2)cc(OC)c1OC,"inconclusive [inhibitor, partial curve]",
OCc1ccccc1,,inactive: 8.29%
CCCC(=O)N(c1ccc(OCC)cc1)C1C=CS(=O)(=O)C1 (stereo unspecified),,inactive: 5.68%
Cn1c(=O)c([N+](=O)[O-])c(NCCCn2ccnc2)c2ccccc21,"inconclusive [inhibitor, single point]",
CCOC(=O)C(C)(C)Sc1nc2c(cnn2-c2ccc(Cl)cc2)c(=O)[nH]1,"inconclusive [inhibitor, single point]",
CC1CCCCN1S(=O)(=O)c1ccc(C(=O)Nc2nnc(-c3ccccc3Cl)o2)cc1 (stereo unspecified),,inactive: -4.84%
Cc1ccc(-c2nnn(CC(=O)Nc3cccc4c3CCCC4)n2)o1,,inactive: 1.67%
COc1cc(/C=C(\C#N)C(=O)NC(C)C)ccc1OCc1ccc(C(=O)O)cc1,"inconclusive [inhibitor, single point]",
CCCCOc1ccc(C(=O)O)cc1,,inactive: 5.41%
COc1ccc(/C=N/n2c(C)nnc2C)c(OC)c1,"inconclusive [inhibitor, single point]",
CN(CCOc1ccccc1)c1ccc(S(=O)(=O)N2CCCCC2)cn1,"inconclusive [inhibitor, partial curve]",
Cn1c(SCC(=O)OC2CCCCC2)nnc1-c1ccc(S(=O)(=O)N2CCCC2)cc1,"inconclusive [inhibitor, partial curve]",
CN1C=CC=C/C1=C1\SC(=S)N(N)C1=O,"inconclusive [inhibitor, single point]",
CC(C)C1Oc2cc3oc(=O)ccc3cc2C1=O (stereo unspecified),"inconclusive [inhibitor, partial curve]",
Cn1c(=O)c2[nH]c(CCS)nc2n(C)c1=O,"inconclusive [inhibitor, partial curve]",
Cc1cc(C)nc(N/N=C/c2ccc(N3CCOCC3)cc2)n1,,inactive: -8.73%
Cc1nn(Cc2ccccc2)c(=O)n1N(C)c1ncc(C(F)(F)F)cc1Cl,,inactive: 1.17%
C[N+]1(C)CCC(=C2c3ccccc3CC(=O)c3sccc32)CC1,active: 7.08 µM,
CCOC(=O)c1sc2nc(C)cc(C)c2c1NC(=O)c1ccco1,"inconclusive [inhibitor, single point]",
O=C(Cc1cccs1)N1CCC(c2nc3c(nnn3Cc3ccccc3Cl)c(=O)[nH]2)CC1,"inconclusive [inhibitor, single point]",
